Laboratory results as given in PubChem BioAssay AID1508623 (National Center for Advancing Translational Sciences (NCATS), 2021).
The campaign covered roughly 48,000 compounds. About 450 (0.94%) were called active. Another 19% or so got no clear call; they are omitted. Calls follow the shape of the dose curve; as a rule, active = well fitted inhibition curve with a large enough effect; inconclusive = small, poorly fitted or top-dose-only effect; inactive = no such curve, though single readings can be large or run the other way. The list shows a part of the results.

Assay: Primary qHTS for Identification of Small Molecule Inhibitors of Huntingtin Promoter Activity; also: nearly all actives have a fitted effect of over 50% in size
Details: HEK293 HTT promoter firefly luciferase reporter (activity 0% = vehicle and -100% = no light), 24 h; series mostly up to 57.5 µM; activity change, negative = inhibition: at the top concentration
In short: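 Quantitative HTS used concentration series of up to 57.5 uM final on HEK293 luciferase reporter cells, 24 h at 37 degrees C. Readout was Dual-Glo firefly luminescence.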

Activity change, negative = inhibition, inactive:
Cc1ccccc1CN1CCC(CNc2ncnc3onc(-c4ccc(F)cc4)c23)CC1 -0.0409%, CCOC(=O)c1c(C)c(-c2ccccc2)n(CC(=O)Nc2cc(C)ccc2OC)c1C -6.63%, CCc1cccc(-n2nnc(-c3nsc(NC(=O)c4cccs4)n3)c2C)c1 26.9%, CC(=O)Nc1ccc2nc(-c3cc(C)ccc3C)[nH]c2c1 15.7%, CCCCN(CC)CCNC(=O)c1cn(C)c(=O)c2c1c1ccccc1n2C -0.415%, COC(=O)c1ccccc1NC(=O)Cn1nnc2sc(-c3ccccc3)cc2c1=O 6.5%, CCc1ccc(-c2nn(CC(=O)NC3CCCC3)c3c2cnc2ccc(F)cc23)cc1 65.9%, CCOc1ccccc1NC(=O)NCCn1c(=O)oc2ccc(C)cc21 -10.3%, COc1ccc(-c2nc(-c3ccccc3)c(-c3ccc(O)cc3)[nH]2)cc1 -0.0768%, COc1ccccc1CNS(=O)(=O)c1cc2c3c(c1)CCN3C(=O)CC2 -31.9%, COc1ccccc1C(=O)Nc1nc(-c2ccccc2)ns1 61.2%, COc1ccc(Cn2c(C(=O)O)c(CNC3CCCCCC3)c3ccc(OC)cc32)cc1 -15.1%, O=C(/C=C/c1ccc(F)cc1)Nc1nc2n(n1)C(c1ccc(Cl)cc1)C=C(c1ccccc1)N2 (configuration not stated) -28.4%, COc1ccc(OC)c(CNC(=O)CCn2c(=O)c3cccn3c3ccc(F)cc32)c1 -3.53%, COc1ccc(-n2ncc3c(NCCC4=CCCCC4)ncnc32)cc1 -6.68%, Cc1ccccc1-c1nc(CS(=O)(=O)CC(=O)NCc2cccc(Cl)c2)c(C)o1 -3.05%, Cc1ccc(N2CC(C(=O)Nc3ccc(Br)cc3)CC2=O)cc1 (configuration not stated) -19.9%, C=Cc1ccc(CN2C(=O)N(c3cccc(Cl)c3)S(=O)(=O)c3ccccc32)cc1 -23.5%, Cc1ccc2c(=O)c(C(=O)c3cccc(Cl)c3)cn(CC(=O)NCc3ccc(F)cc3)c2n1 -14.5%, COc1ccc(C(=O)n2nc(-c3ccco3)nc2NCc2cccs2)cc1 15.2%, O=C(NCc1cccc(Cl)c1)C(=O)Nc1ccc2nc3n(c(=O)c2c1)CCCCC3 0.752%, CCCCN1CCCc2cc(CN(CCCN3CCOCC3)C(=O)Nc3ccc(OCC)cc3)ccc21 5.81%, COc1ccc(C)cc1Nc1c2c(nc3nc(-c4cccs4)nn13)CCCC2 0%, COc1cc(Nc2nc3ccccc3c3nnc(C)n23)cc(OC)c1 -14.8%, CCN(CC)S(=O)(=O)c1ccc2c(c1)N(CC(=O)N1CCN(c3ccccc3F)CC1)C(=O)CO2 -12.1%, Cc1ccc(NC(=O)N2CCc3cc(S(=O)(=O)N4CCC(C)CC4)ccc32)cc1C -2.39%, CCOC(=O)c1ccc(Nc2ncnc3c2cnn3-c2cccc(Cl)c2)cc1 -1.29%, Cc1ccccc1NS(=O)(=O)c1nnc(NC(=O)c2ccccc2C)s1 -2.88%, CCOC(=O)c1ccc(NC(=O)c2ncn(-c3ccccc3)n2)cc1 10.1%, COc1ccc(N2CCN(C(=O)CCn3c(=O)c4cccn4c4cccnc43)CC2)cc1 -10.4%, CCN(CC)c1ccc(C(=O)N2CCC(c3c[nH]c4ccccc34)(c3c[nH]c4ccccc34)CC2)cc1 -5.88%, O=C(NC1CCN(Cc2ccccc2)CC1)c1ccc(Cn2c(=O)c3ccccc3n(Cc3ccccc3)c2=O)cc1 -21.4%, Cc1ccc(-c2nc(-c3cc4cccc(OCc5cccc(C)c5)c4oc3=O)no2)cc1 -1.63%, Cc1ccc(CNC(=O)c2ccc(-n3cnc4cccnc43)cc2)cc1 -17.7%, Cc1ccc(NC(=O)/C(C#N)=C/c2cc(C)n(-c3ccc(F)cc3)c2C)cc1C -8.92%, CCc1ccc(NC(=O)Cn2c3ncccc3c(=O)n2-c2ccc(C)c(C)c2)cc1 -8.89%, Cc1cccc(NC(=O)CSc2nc3c([nH]c4ccccc43)c(=O)n2C)c1C -7.24%, N#C/C(=C\c1ccc(Cl)cc1)c1nc2ccccc2[nH]1 17.8%, Brc1ccccc1-c1ccccc1 10.1% [at 116 µM], CC(NC(=O)Nc1ccccc1C(F)(F)F)c1c(-n2cccc2)sc2c1CCCC2 (configuration not stated) -29.3%, COc1ccccc1CNC(=O)Cn1ncc2c3ccccc3n(Cc3ccccc3C)c2c1=O 6.19%, CCOC(=O)c1ccc(NS(=O)(=O)c2ccc(Br)s2)cc1 -14.6%, COc1ccccc1NC(=O)CSc1oc(-c2cccs2)nc1S(=O)(=O)c1ccc(Br)cc1 -32%, CN(C(=O)CSc1nc2c(c(=O)[nH]1)CCCC2)c1ccccc1 -13.5%, CCOc1ccccc1NC(=O)C1CCN(S(=O)(=O)c2ccccc2)CC1 -27.7%, CCOc1ccc(S(=O)(=O)N2CCN(c3c(C)cccc3C)CC2)c2ccccc12 -20.1%, Cc1cc(C)cc(OC(=O)c2snnc2C)c1 -21.9%, COc1cc(NC(=O)Cn2ncc3c([nH]c4ccc(C)cc43)c2=O)cc(OC)c1OC -2.54%, COc1cc(Cl)c(C)cc1NC(=O)CSc1ncc(S(=O)(=O)c2ccc(C(C)(C)C)cc2)c(=O)[nH]1 -4.08%, COc1ccc(NC(=O)CSc2nnc(-c3cccs3)o2)cc1 61.5%, CCOc1ccccc1Nc1cc(-c2ccccc2)nc(C)n1 -15.6%, CC(C)(Oc1ccc(C2CC2(Cl)Cl)cc1)C(=O)O (configuration not stated), CC(C)CCN(Cc1ccco1)C(=O)c1cc2c(Cl)nc3ccccc3c2s1 4.04%, Cc1ccc(S(=O)(=O)CC(=O)Nc2sc3c(c2C#N)CCCCC3)cc1 -13%, COc1ccc(-c2noc(CSCC(=O)Nc3cccc(C(F)(F)F)c3)n2)cc1OC -13.1%, CCCOc1ccc(-c2nn(-c3ccccc3)cc2C2NC(=O)NC(C)=C2C(=O)OC)cc1C (configuration not stated) -9.61%, CCOc1ccccc1NC(=O)Nc1nnc(N2CCCCCC2)s1 -8.92%, CCC(=O)N1CCc2cc(Br)cc(S(=O)(=O)CCC(=O)NCCc3ccc(Cl)cc3)c21 -14.3%, COc1ccccc1N1CCN(CC(O)COc2cc(C)cc(C)c2)CC1 (configuration not stated) -26.5%, COc1cccc(CNC(=O)CCCN2C(=O)CSc3c2c(C)nn3-c2ccccc2)c1 -23.1%, NC(=O)[C@@H](CCC(F)(F)F)N(Cc1ccc(-c2ncon2)cc1F)S(=O)(=O)c1ccc(Cl)cc1 -26.7%, O=c1c2ccccc2n(Cc2cccc(F)c2)c(=O)n1Cc1ccccc1Cl -33.5%, COc1ccc(-c2ccc3c(N)c(C(=O)Nc4cc(F)ccc4C)sc3n2)cc1 -21.5%, Cc1cccc(Nc2c3c(nc4nncn24)CCC3)c1 -15.4%, CCn1cc(C(=O)N2CCN(c3cc(C)ccc3C)CC2)c(=O)c2cc(S(=O)(=O)N(C)C3CCCCC3)ccc21 -8.58%, Cc1ccc(-c2cc(C(=O)NCCc3ccccc3)c3c(-c4ccc(C)cc4)[nH]nc3n2)cc1 67.4%, Cc1ccc(NC(=O)CSc2nc3c([nH]c4ccccc43)c(=O)n2-c2ccccc2)c(C)c1 -11.7%, CCCCN1CCc2nc(N3CCN(c4ncccn4)CC3)ncc2C1 -10.8%, CCN(c1ccccc1)S(=O)(=O)c1ccc(NC(=O)c2cc(=O)c3cc(C)c(C)cc3o2)cc1 -24.5%, Cc1cccc(NS(=O)(=O)c2ccc3c(c2)CCN3C(=O)CCC(=O)O)c1C 5.72%, COc1cccc(-n2cc(C(=O)NCc3cccc(Cl)c3)c3ccccc3c2=O)c1 -22.7%, COc1ccc(S(=O)(=O)Nc2cc3c(cc2NCc2ccccc2)n(C)c(=O)n3C)cc1OC 129%, COc1ccccc1N1CCN(C(=O)Cn2c(=O)nc(-c3ccccc3)c3cc(Cl)ccc32)CC1 0.411%, CCOc1ccc(NC(=O)c2ccc(-c3ccccc3)s2)cc1 0.0802%, Cc1ccc2c(=O)cc(CSc3nnc(-c4ccccc4)n3C)[nH]c2c1C -2.15%, CC(C)c1ccc(S(=O)(=O)Nc2ccc3oc4c(c3c2)C(=O)CC(C)(C)C4)cc1 -17.3%, Cc1cc(C)c(NC(=O)c2cc3c(=O)n4ccccc4nc3n2C)c(C)c1 -17.3%, Cc1cc(-c2nc3ncccc3o2)ccc1NC(=O)c1ccc(Br)cc1 -9.22%, CCOC(=O)Cn1c(=O)n(C2CCCCC2)c2nc(-c3ccc(Cl)cc3)nc(C(N)=O)c21 6.51%, Cc1c(Cl)cccc1NC(=O)c1ccc(C(=O)Nc2cccc(Cl)c2C)cc1 2.37%, CC1CCN(C(=O)c2cnn(-c3cccc(Cl)c3)c2C2CCN(C(=O)OC(C)(C)C)CC2)CC1 0.708%, COc1cc(OC)cc(-n2nnc(-c3nc(-c4ccccc4Cl)no3)c2N)c1 -4.57%, CC(=O)N1CCc2c(sc3c2c(=O)n(-c2ccccc2C)c(=O)n3Cc2cccc(F)c2)C1 -28.5%, C[C@@H](O)[C@H]1C(=O)N2C(C(=O)O)=C(SCCN=CN)C[C@H]12 5.41%, COc1ccc(OCC(=O)NCC(c2ccc(Cl)cc2)N2CCCCC2)cc1 (configuration not stated) -12.7%, CC(=O)N1c2ccccc2C(=O)C1N1CCN(c2ccccc2)CC1 (configuration not stated) -18.2%, CSc1ccc(CNC(=O)c2ccccc2NC(=O)c2nsc3ccccc23)cc1 16.7%, COc1ccc(NC(=O)c2c(-c3ccccc3)c(-c3ccccc3)nn(C)c2=O)c(OC)c1 -12.4%, Cc1ccccc1Nc1c(-c2ccc(N3CCOCC3)cc2)nc2ncccn12 8%, Cc1c(CNC(C)CCc2ccccc2)c(C(=O)O)c(C)n1Cc1ccc(F)cc1Cl (configuration not stated) -22.3%, CC1=C(C(=O)O)N2C(=O)[C@@H](NC(=O)[C@H](N)c3ccc(O)cc3)[C@H]2SC1 -0.568%, O=C(Nc1ccccc1-c1nc2ccccc2s1)c1cc(Cl)cc(Cl)c1 -12%, O=C(c1ccccc1Cl)n1nc(-c2cccnc2)nc1NCc1ccc(F)cc1 -16.7%, COC(=O)c1scc(-c2ccccc2)c1S(=O)(=O)Nc1cccc(C)c1C -22.7%, COc1ccc(N2CCN(C3=NS(=O)(=O)C(c4cccc(Br)c4)=C3C)CC2)cc1 -16%, Cc1cc(C)c(NC(=O)CCc2c(C)nc3c(c(C)nn3C(C)(C)C)c2C)c(C)c1 -8.99%, CCOC(=O)c1ccc(NC(=O)CCc2c(C)nc3nc[nH]n3c2=O)cc1 2.33%
